Measurements: patent US6426205 (MOUNT SINAI HOSPITAL, dated 2002)
Numbering of substitutions follows the chain as printed.

Assays:
[1] = molecular target: T1, MYC-tagged Cdc53 (Saccharomyces cerevisiae, UniProt Q12018 1-815); test: anti-MYC immunoprecipitation from yeast lysate, immunoblot with anti-Skp1
T1 construct: Expressed from the wild type promoter on a CEN plasmid in yeast and immunoprecipitated with 9E10 anti-MYC; also called Cdc53^M; Cdc53^MYC6
T1 sequence: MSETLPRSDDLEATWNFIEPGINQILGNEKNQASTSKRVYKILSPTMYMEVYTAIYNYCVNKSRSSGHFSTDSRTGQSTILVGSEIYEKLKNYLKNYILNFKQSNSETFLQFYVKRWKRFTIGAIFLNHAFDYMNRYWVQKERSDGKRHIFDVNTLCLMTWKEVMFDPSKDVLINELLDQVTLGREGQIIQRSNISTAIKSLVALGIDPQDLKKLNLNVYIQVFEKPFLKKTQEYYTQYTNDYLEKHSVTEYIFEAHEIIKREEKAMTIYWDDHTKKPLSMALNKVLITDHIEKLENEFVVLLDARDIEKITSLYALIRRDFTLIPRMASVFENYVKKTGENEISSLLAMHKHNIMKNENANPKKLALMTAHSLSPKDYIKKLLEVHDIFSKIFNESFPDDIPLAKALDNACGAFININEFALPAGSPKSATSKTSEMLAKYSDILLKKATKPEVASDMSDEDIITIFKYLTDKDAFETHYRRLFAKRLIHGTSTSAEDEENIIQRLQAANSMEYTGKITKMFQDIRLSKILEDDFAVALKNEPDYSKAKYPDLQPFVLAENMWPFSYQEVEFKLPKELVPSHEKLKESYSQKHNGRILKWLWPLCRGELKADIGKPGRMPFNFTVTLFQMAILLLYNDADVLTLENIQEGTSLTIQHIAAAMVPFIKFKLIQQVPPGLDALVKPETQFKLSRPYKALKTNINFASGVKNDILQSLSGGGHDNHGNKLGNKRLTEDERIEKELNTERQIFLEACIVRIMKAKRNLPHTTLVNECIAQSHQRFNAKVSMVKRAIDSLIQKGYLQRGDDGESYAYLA

[2] = molecular target: T2, Cdc53-Y48W, M49E^MYC6 (Saccharomyces cerevisiae, UniProt Q12018 1-815); test: anti-MYC immunoprecipitation from yeast lysate, western blot
T2 construct: also called mutant Cdc53; pMT1939-1943
T2 sequence: T1 sequence with Y48W, M49E

binding result [1]: binds | binding result [2]: no binding
B1: Skp1 (other)
chain: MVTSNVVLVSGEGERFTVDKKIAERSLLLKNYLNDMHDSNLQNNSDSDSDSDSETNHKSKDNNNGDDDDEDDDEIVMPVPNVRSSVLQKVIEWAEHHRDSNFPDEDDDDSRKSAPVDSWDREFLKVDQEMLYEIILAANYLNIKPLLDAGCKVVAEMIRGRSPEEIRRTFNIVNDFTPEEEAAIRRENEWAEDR
notes: Endogenous protein in yeast lysates, detected with anti-Skp1 antibodies; also called endogenous Skp1
